Results taken from PMC5386371.
No constants are given. Whether binding was seen depends on the method and setting. In cells and extracts the contact can be indirect. Some binding calls cover weakened binding; strength is not graded here. For part of these data: Tags and fused reporters may be left off the sequences shown. Values belong to the molecule of their own block, whether it stands above or below them.

Amino acid sequences for entries named in this document (tags omitted). A change or cut given only in a name is not applied to a line headed by its entry.
UniProt O43524: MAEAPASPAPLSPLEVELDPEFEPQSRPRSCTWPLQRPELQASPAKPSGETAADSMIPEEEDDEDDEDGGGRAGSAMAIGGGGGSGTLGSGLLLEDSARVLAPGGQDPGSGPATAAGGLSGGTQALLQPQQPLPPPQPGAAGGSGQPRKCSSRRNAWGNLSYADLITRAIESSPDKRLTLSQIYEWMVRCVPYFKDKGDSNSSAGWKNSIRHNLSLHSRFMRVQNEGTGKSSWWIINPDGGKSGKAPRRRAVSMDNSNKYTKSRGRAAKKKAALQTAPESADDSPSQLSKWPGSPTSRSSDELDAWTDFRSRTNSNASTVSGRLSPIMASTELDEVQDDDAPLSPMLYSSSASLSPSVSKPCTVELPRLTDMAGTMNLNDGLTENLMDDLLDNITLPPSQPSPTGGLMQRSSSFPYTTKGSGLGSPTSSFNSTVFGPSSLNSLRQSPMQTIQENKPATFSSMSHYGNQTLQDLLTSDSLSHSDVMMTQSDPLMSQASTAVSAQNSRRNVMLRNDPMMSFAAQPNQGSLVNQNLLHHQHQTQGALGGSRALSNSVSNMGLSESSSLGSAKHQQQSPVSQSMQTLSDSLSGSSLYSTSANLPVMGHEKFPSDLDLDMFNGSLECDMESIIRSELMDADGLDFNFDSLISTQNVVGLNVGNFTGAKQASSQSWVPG

How the values were obtained:
[1] = target: T1, REP1-FLAG wild type (hREP1-full, 1-653 a.a.) (human) (UniProt P24386); assay: co-IP; HEK293 cells co-transfected with FOXO3-HA and REP1-FLAG (WT or Mut), 48 h; NP40 lysis buffer (50 mM Tris-HCl pH 8.0, 5 mM EDTA, 150 mM NaCl, 1% NP-40); IP with anti-HA or anti-FLAG for 16 h; western blot with anti-FOXO3 and anti-REP1
T1 sequence: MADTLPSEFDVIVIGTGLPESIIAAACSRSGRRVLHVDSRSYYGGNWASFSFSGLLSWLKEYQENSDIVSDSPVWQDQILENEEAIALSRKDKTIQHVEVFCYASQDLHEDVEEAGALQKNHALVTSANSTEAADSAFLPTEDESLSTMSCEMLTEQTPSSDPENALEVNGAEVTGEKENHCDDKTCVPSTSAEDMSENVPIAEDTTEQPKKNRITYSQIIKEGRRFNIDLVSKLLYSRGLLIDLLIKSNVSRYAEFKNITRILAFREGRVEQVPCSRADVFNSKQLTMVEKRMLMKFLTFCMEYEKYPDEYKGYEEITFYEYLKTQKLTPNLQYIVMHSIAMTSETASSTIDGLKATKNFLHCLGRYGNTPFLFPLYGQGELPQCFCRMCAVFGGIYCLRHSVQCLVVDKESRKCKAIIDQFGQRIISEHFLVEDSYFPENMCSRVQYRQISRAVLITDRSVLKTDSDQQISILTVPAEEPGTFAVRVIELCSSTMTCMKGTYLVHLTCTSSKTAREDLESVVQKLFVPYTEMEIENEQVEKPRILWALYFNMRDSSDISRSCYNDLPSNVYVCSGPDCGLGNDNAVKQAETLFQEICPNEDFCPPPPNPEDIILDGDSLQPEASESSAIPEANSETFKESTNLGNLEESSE

[2] = target: T2, REP1-FLAG mutant (hREP1-S473X, 1-472 a.a.) (human) (UniProt P24386); assay: as above
T2 sequence: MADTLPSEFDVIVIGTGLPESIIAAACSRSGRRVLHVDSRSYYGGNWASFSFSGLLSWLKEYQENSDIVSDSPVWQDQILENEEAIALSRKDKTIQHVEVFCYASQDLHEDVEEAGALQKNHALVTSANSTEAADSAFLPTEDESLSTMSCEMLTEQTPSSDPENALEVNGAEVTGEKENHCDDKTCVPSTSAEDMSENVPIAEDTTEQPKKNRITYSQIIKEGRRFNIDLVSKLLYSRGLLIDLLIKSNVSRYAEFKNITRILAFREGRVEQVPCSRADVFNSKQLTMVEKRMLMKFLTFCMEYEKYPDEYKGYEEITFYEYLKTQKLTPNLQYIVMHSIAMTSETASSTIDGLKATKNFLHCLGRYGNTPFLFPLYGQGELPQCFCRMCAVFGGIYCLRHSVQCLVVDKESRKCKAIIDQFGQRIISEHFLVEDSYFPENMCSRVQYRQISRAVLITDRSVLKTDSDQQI

[3] = target: T3, endogenous REP1 (HCT116 cells) (human (endogenous in HCT116)) (UniProt P24386); assay: co-IP; endogenous proteins in HCT116 lysate (NP40 lysis buffer); IP with anti-FOXO3, anti-REP1 or rabbit IgG for 16 h; western blot
T3 sequence: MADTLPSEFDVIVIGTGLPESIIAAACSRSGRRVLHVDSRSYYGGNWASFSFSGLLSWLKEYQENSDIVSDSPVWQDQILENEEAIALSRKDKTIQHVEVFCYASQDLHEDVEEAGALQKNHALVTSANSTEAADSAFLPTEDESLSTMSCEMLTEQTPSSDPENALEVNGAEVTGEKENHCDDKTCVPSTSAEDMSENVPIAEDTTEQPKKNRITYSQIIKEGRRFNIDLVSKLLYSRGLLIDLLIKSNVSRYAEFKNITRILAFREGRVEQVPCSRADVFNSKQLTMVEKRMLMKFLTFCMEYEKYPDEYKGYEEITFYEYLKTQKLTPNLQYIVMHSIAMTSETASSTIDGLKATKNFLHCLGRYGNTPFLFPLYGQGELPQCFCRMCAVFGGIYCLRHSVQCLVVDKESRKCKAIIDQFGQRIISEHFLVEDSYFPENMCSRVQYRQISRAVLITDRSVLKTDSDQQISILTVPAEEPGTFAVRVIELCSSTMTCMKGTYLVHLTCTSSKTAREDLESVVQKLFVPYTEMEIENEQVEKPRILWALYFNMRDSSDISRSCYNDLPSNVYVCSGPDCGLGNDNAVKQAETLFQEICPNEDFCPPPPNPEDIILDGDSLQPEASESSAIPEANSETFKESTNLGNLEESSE

[4] = target: FOXO3-HA (full-length human FOXO3a) (human) (UniProt O43524); assay: co-IP; HEK293 cells co-transfected with FOXO3-HA and REP1-FLAG (WT or Mut), 48 h; NP40 lysis buffer (50 mM Tris-HCl pH 8.0, 5 mM EDTA, 150 mM NaCl, 1% NP-40); IP with anti-HA or anti-FLAG for 16 h; western blot with anti-FOXO3 and anti-REP1
[5] = target: endogenous FOXO3 (HCT116 cells) (human (endogenous in HCT116)) (UniProt O43524); assay: co-IP; endogenous proteins in HCT116 lysate (NP40 lysis buffer); IP with anti-FOXO3, anti-REP1 or rabbit IgG for 16 h; western blot

Molecule: FOXO3-HA (full-length human FOXO3a) (from UniProt O43524-1 1-673)
binding [1]: binds
binding [2]: no binding

B1: REP1-FLAG mutant (hREP1-S473X, 1-472 a.a.) (domain or fragment, UniProt P24386 1-472)
chain: MADTLPSEFDVIVIGTGLPESIIAAACSRSGRRVLHVDSRSYYGGNWASFSFSGLLSWLKEYQENSDIVSDSPVWQDQILENEEAIALSRKDKTIQHVEVFCYASQDLHEDVEEAGALQKNHALVTSANSTEAADSAFLPTEDESLSTMSCEMLTEQTPSSDPENALEVNGAEVTGEKENHCDDKTCVPSTSAEDMSENVPIAEDTTEQPKKNRITYSQIIKEGRRFNIDLVSKLLYSRGLLIDLLIKSNVSRYAEFKNITRILAFREGRVEQVPCSRADVFNSKQLTMVEKRMLMKFLTFCMEYEKYPDEYKGYEEITFYEYLKTQKLTPNLQYIVMHSIAMTSETASSTIDGLKATKNFLHCLGRYGNTPFLFPLYGQGELPQCFCRMCAVFGGIYCLRHSVQCLVVDKESRKCKAIIDQFGQRIISEHFLVEDSYFPENMCSRVQYRQISRAVLITDRSVLKTDSDQQI
binding [4]: no binding

B2: REP1-FLAG wild type (hREP1-full, 1-653 a.a.) (protein, UniProt P24386 1-653)
chain: MADTLPSEFDVIVIGTGLPESIIAAACSRSGRRVLHVDSRSYYGGNWASFSFSGLLSWLKEYQENSDIVSDSPVWQDQILENEEAIALSRKDKTIQHVEVFCYASQDLHEDVEEAGALQKNHALVTSANSTEAADSAFLPTEDESLSTMSCEMLTEQTPSSDPENALEVNGAEVTGEKENHCDDKTCVPSTSAEDMSENVPIAEDTTEQPKKNRITYSQIIKEGRRFNIDLVSKLLYSRGLLIDLLIKSNVSRYAEFKNITRILAFREGRVEQVPCSRADVFNSKQLTMVEKRMLMKFLTFCMEYEKYPDEYKGYEEITFYEYLKTQKLTPNLQYIVMHSIAMTSETASSTIDGLKATKNFLHCLGRYGNTPFLFPLYGQGELPQCFCRMCAVFGGIYCLRHSVQCLVVDKESRKCKAIIDQFGQRIISEHFLVEDSYFPENMCSRVQYRQISRAVLITDRSVLKTDSDQQISILTVPAEEPGTFAVRVIELCSSTMTCMKGTYLVHLTCTSSKTAREDLESVVQKLFVPYTEMEIENEQVEKPRILWALYFNMRDSSDISRSCYNDLPSNVYVCSGPDCGLGNDNAVKQAETLFQEICPNEDFCPPPPNPEDIILDGDSLQPEASESSAIPEANSETFKESTNLGNLEESSE
binding [4]: binds

Other lines, results leading:

binding [3]: binds
Molecule: endogenous FOXO3 (HCT116 cells) (from UniProt O43524 1-673)

binding [5]: binds
B3: endogenous REP1 (HCT116 cells) (protein, UniProt P24386 1-653)
chain: MADTLPSEFDVIVIGTGLPESIIAAACSRSGRRVLHVDSRSYYGGNWASFSFSGLLSWLKEYQENSDIVSDSPVWQDQILENEEAIALSRKDKTIQHVEVFCYASQDLHEDVEEAGALQKNHALVTSANSTEAADSAFLPTEDESLSTMSCEMLTEQTPSSDPENALEVNGAEVTGEKENHCDDKTCVPSTSAEDMSENVPIAEDTTEQPKKNRITYSQIIKEGRRFNIDLVSKLLYSRGLLIDLLIKSNVSRYAEFKNITRILAFREGRVEQVPCSRADVFNSKQLTMVEKRMLMKFLTFCMEYEKYPDEYKGYEEITFYEYLKTQKLTPNLQYIVMHSIAMTSETASSTIDGLKATKNFLHCLGRYGNTPFLFPLYGQGELPQCFCRMCAVFGGIYCLRHSVQCLVVDKESRKCKAIIDQFGQRIISEHFLVEDSYFPENMCSRVQYRQISRAVLITDRSVLKTDSDQQISILTVPAEEPGTFAVRVIELCSSTMTCMKGTYLVHLTCTSSKTAREDLESVVQKLFVPYTEMEIENEQVEKPRILWALYFNMRDSSDISRSCYNDLPSNVYVCSGPDCGLGNDNAVKQAETLFQEICPNEDFCPPPPNPEDIILDGDSLQPEASESSAIPEANSETFKESTNLGNLEESSE
